Reference: paper PMC9911399, “Two distinct binding modes provide the RNA-binding protein RbFox with extraordinary sequence specificity”
Substitutions are numbered along the chain they refer to; changes in the protein carry UniProt numbers. This is one part of the list.

T1: RBFOX1 RRM RbFoxmut (Fox-RRM*) (Homo sapiens, UniProt Q9NWB1 109-208, R118D;E147R;N151S;E152T)
T1 sequence: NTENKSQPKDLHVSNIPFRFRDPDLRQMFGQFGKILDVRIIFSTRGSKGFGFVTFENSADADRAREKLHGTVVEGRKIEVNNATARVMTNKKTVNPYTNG

B1: GUCCCAU (DNA:RNA)
RNA: GGGAGACCGGAAUUCAGAUUGUCCGUCCCAUUUAAAUCCCGUCGUAGCCACCA
DNA 1: CAATCTGAATTCCGGTCTCCC
DNA 2: TGGTGGCTACGACGGGATT
B2: GUCCCCG (DNA:RNA)
RNA: B1 RNA with A30C, U31G
DNA 1: CAATCTGAATTCCGGTCTCCC
DNA 2: TGGTGGCTACGACGGGATT
B3: GGCGGAU (DNA:RNA)
RNA: B1 RNA with U26G, C28G, C29G
DNA 1: CAATCTGAATTCCGGTCTCCC
DNA 2: TGGTGGCTACGACGGGATT
B4: CUCUUUG (DNA:RNA)
RNA: B1 RNA with G25C, C28U, C29U, A30U, U31G
DNA 1: CAATCTGAATTCCGGTCTCCC
DNA 2: TGGTGGCTACGACGGGATT
B5: GCAUCAA (DNA:RNA)
RNA: B1 RNA with U26C, C27A, C28U, U31A
DNA 1: CAATCTGAATTCCGGTCTCCC
DNA 2: TGGTGGCTACGACGGGATT
B6: CUACAAA (DNA:RNA)
RNA: B1 RNA with G25C, C27A, C29A, U31A
DNA 1: CAATCTGAATTCCGGTCTCCC
DNA 2: TGGTGGCTACGACGGGATT
B7: UCCUUUA (DNA:RNA)
RNA: B1 RNA with G25U, U26C, C28U, C29U, A30U, U31A
DNA 1: CAATCTGAATTCCGGTCTCCC
DNA 2: TGGTGGCTACGACGGGATT
B8: CCUGGGC (DNA:RNA)
RNA: GGGAGACCGGAAUUCAGAUUGUCCCCUGGGCUUAAAUCCCGUCGUAGCCACCA
DNA 1: CAATCTGAATTCCGGTCTCCC
DNA 2: TGGTGGCTACGACGGGATT
B9: AGACCGU (DNA:RNA)
RNA: B1 RNA with G25A, U26G, C27A, A30G
DNA 1: CAATCTGAATTCCGGTCTCCC
DNA 2: TGGTGGCTACGACGGGATT
B10: AGCCCGA (DNA:RNA)
RNA: B1 RNA with G25A, U26G, A30G, U31A
DNA 1: CAATCTGAATTCCGGTCTCCC
DNA 2: TGGTGGCTACGACGGGATT
B11: GGCGCAA (DNA:RNA)
RNA: B1 RNA with U26G, C28G, U31A
DNA 1: CAATCTGAATTCCGGTCTCCC
DNA 2: TGGTGGCTACGACGGGATT
B12: ACAGAGC (DNA:RNA)
RNA: B8 RNA with C25A, U27A, G29A
DNA 1: CAATCTGAATTCCGGTCTCCC
DNA 2: TGGTGGCTACGACGGGATT
B13: AGUUGUG (DNA:RNA)
RNA: B8 RNA with C25A, C26G, G28U, G30U, C31G
DNA 1: CAATCTGAATTCCGGTCTCCC
DNA 2: TGGTGGCTACGACGGGATT
B14: ACGUAAC (DNA:RNA)
RNA: B8 RNA with C25A, U27G, G28U, G29A, G30A
DNA 1: CAATCTGAATTCCGGTCTCCC
DNA 2: TGGTGGCTACGACGGGATT
B15: AGACCAG (DNA:RNA)
RNA: B1 RNA with G25A, U26G, C27A, U31G
DNA 1: CAATCTGAATTCCGGTCTCCC
DNA 2: TGGTGGCTACGACGGGATT
B16: UGAUGCG (DNA:RNA)
RNA: B8 RNA with C25U, C26G, U27A, G28U, G30C, C31G
DNA 1: CAATCTGAATTCCGGTCTCCC
DNA 2: TGGTGGCTACGACGGGATT
B17: GCGCAGC (DNA:RNA)
RNA: B8 RNA with C25G, U27G, G28C, G29A
DNA 1: CAATCTGAATTCCGGTCTCCC
DNA 2: TGGTGGCTACGACGGGATT
B18: ACUCGAC (DNA:RNA)
RNA: B8 RNA with C25A, G28C, G30A
DNA 1: CAATCTGAATTCCGGTCTCCC
DNA 2: TGGTGGCTACGACGGGATT
B19: GGCGGGA (DNA:RNA)
RNA: B8 RNA with C25G, C26G, U27C, C31A
DNA 1: CAATCTGAATTCCGGTCTCCC
DNA 2: TGGTGGCTACGACGGGATT
B20: UUAGGCG (DNA:RNA)
RNA: B8 RNA with C25U, C26U, U27A, G30C, C31G
DNA 1: CAATCTGAATTCCGGTCTCCC
DNA 2: TGGTGGCTACGACGGGATT

What follows are binders tested against T1, RBFOX1 RRM RbFoxmut (Fox-RRM*) (assay: EMSA; HiTS-Eq, 1 nM pool, 10 min; buffer printed only for the single-RNA assays: 10 mM Tris pH 7.5, 150 mM NaCl, 3.4 mM EDTA, 0.001% NP-40, 30 C). Conditions: tags: His6 N-terminal (pET28a); label: 5' 32P.
Outline: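 Purified wild-type or mutant RbFox RRM at increasing concentrations was equilibrated with 1 nM of 5′-radiolabelled RNA carrying 7 randomized nucleotides for 10 min in 50 µL. Unbound RNA was separated by 8% native PAGE and sequenced. Relative association constants came from read-count changes of each RNA species compared with the control reaction, normalised to the cognate motif.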
With B1 the binding signal was 0.0766 KA relative to UGCAUGU.
In the case of B2, the binding signal is reported as 0.0635 KA relative to UGCAUGU.
B3 was tested, and the binding signal was 0.0987 KA relative to UGCAUGU.
With B4 the binding signal was 0.125 KA relative to UGCAUGU.
B5 was tested, and the binding signal was 0.323 KA relative to UGCAUGU.
For B6, the binding signal was 0.044 KA relative to UGCAUGU.
With B7 the binding signal was 0.0931 KA relative to UGCAUGU.
In the case of B8, the binding signal is reported as 0.0947 KA relative to UGCAUGU.
B9 was tested, and the binding signal was 0.0878 KA relative to UGCAUGU.
In the case of B10, the binding signal is reported as 0.0896 KA relative to UGCAUGU.
With B11 the binding signal was 0.0809 KA relative to UGCAUGU.
For B12, the binding signal was 0.0994 KA relative to UGCAUGU.
For B13, the binding signal was 0.175 KA relative to UGCAUGU.
In the case of B14, the binding signal is reported as 0.113 KA relative to UGCAUGU.
B15 was tested, and the binding signal was 0.103 KA relative to UGCAUGU.
In the case of B16, the binding signal is reported as 0.141 KA relative to UGCAUGU.
With B17 the binding signal was 0.0767 KA relative to UGCAUGU.
With B18 the binding signal was 0.0588 KA relative to UGCAUGU.
In the case of B19, the binding signal is reported as 0.0655 KA relative to UGCAUGU.
In the case of B20, the binding signal is reported as 0.113 KA relative to UGCAUGU.
